Reference: PubChem BioAssay AID1745853 (National Center for Advancing Translational Sciences (NCATS), 2022)
This is one part of the list. Further columns of the screen follow, without active or inactive calls.

Columns and labels:
Experiment in all cases: Primary Screen for Target Class Profiling of Small Molecule Inhibitors of Methyltransferases
[1] = target: Glycine N-methyltransferase (Homo sapiens) (UniProt Q14749); settings: purified enzyme, MTase-Glo SAH luminescence; measured here: GNMT inhibition; at 40 µM; stronger effect = lower value
Method in brief: (§1)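 Each enzyme was assayed with SAM and its substrate. SAH formation detected by MTase-Glo luminescence; single-point 40 uM screen[…].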

[2] = target: Guanidinoacetate N-methyltransferase (Homo sapiens) (UniProt Q14353); settings: purified enzyme, MTase-Glo SAH luminescence; measured here: GAMT inhibition; at 40 µM; stronger effect = lower value
Method in brief: as §1

[3] = target: Histamine N-methyltransferase (Homo sapiens) (UniProt P50135); settings: purified enzyme, MTase-Glo SAH luminescence; measured here: HNMT inhibition; at 40 µM; stronger effect = lower value
Method in brief: as §1

[4] = target: Nicotinamide N-methyltransferase (Homo sapiens) (UniProt P40261); settings: purified enzyme, MTase-Glo SAH luminescence; measured here: NNMT inhibition; at 40 µM; stronger effect = lower value
Method in brief: as §1

[5] = target: Phenylethanolamine N-methyltransferase (Homo sapiens) (UniProt P11086); settings: purified enzyme, MTase-Glo SAH luminescence; measured here: PNMT inhibition; at 40 µM; stronger effect = lower value
Method in brief: as §1
On the % scale 0 is the no-effect control and ±100 the full control effect.

Compound: Cc1ccc(CNC(=O)Cn2ccc3cc(S(=O)(=O)N4CCCCC4)ccc32)cc1
- activity change, negative = inhibition [1]: 1.8%
- activity change, negative = inhibition [2]: 0.218%
- activity change, negative = inhibition [3]: 4.07%
- activity change, negative = inhibition [4]: -0.182%
- activity change, negative = inhibition [5]: 0.479%

Compound: COc1ccc(OC)c(NS(=O)(=O)c2cc3c(cc2C)n(C)c(=O)n3C)c1
- activity change, negative = inhibition [1]: -0.602%
- activity change, negative = inhibition [2]: 1.66%
- activity change, negative = inhibition [3]: -1.04%
- activity change, negative = inhibition [4]: -4.43%
- activity change, negative = inhibition [5]: 1.92%

Compound: C=CCN1CC2(CCC1=O)CCN(C(=O)CC(C)n1ccnc1C)CC2 (stereo not given)
- activity change, negative = inhibition [1]: -2.33%
- activity change, negative = inhibition [2]: -2.84%
- activity change, negative = inhibition [3]: -3.9%
- activity change, negative = inhibition [4]: -4.94%
- activity change, negative = inhibition [5]: 1.03%

Compound: CCc1cc2c(cc3n2CC(C)(C(=O)NC2CCCCC2)N(CCN2CCOCC2)C3=O)s1 (stereo not given)
- activity change, negative = inhibition [1]: -2.96%
- activity change, negative = inhibition [2]: 1.45%
- activity change, negative = inhibition [3]: -2.33%
- activity change, negative = inhibition [4]: -5.82%
- activity change, negative = inhibition [5]: 0.432%

Compound: CCc1ccc(N2C(=O)c3c(C(=O)OC)ncn3CC2(C)C(=O)NCCCOC(C)C)cc1 (stereo not given)
- activity change, negative = inhibition [1]: 1.47%
- activity change, negative = inhibition [2]: 2.42%
- activity change, negative = inhibition [3]: 15.8%
- activity change, negative = inhibition [4]: 9.86%
- activity change, negative = inhibition [5]: 10.2%

Compound: CSCC[C@H](N)C(=O)N1CCC2(CCC(=O)N(Cc3ccccc3)C2)CC1
- activity change, negative = inhibition [1]: -5.56%
- activity change, negative = inhibition [2]: -1.13%
- activity change, negative = inhibition [3]: -0.749%
- activity change, negative = inhibition [4]: -8.56%
- activity change, negative = inhibition [5]: 1.68%

Compound: CCN1C(=O)c2cc(C(=O)NCCc3cccs3)nn2CC1(C)C(=O)NC1CCCC1 (stereo not given)
- activity change, negative = inhibition [1]: 4.68%
- activity change, negative = inhibition [2]: 4.66%
- activity change, negative = inhibition [3]: -1.69%
- activity change, negative = inhibition [4]: 4.33%
- activity change, negative = inhibition [5]: 3.2%

Compound: Cc1noc(-c2ccc(-c3ccc(CC(=O)O)cc3)cc2)c1NC(=O)O[C@H](C)c1ccccc1Cl
- activity change, negative = inhibition [1]: -8.73%
- activity change, negative = inhibition [2]: 13.8%
- activity change, negative = inhibition [3]: 4.77%
- activity change, negative = inhibition [4]: -22.1%
- activity change, negative = inhibition [5]: 1.12%

Compound: CC(C)C(=O)c1c(C(C)C)nn2ccccc12
- activity change, negative = inhibition [1]: -1.38%
- activity change, negative = inhibition [2]: 12%
- activity change, negative = inhibition [3]: 2.57%
- activity change, negative = inhibition [4]: -4.59%
- activity change, negative = inhibition [5]: 7.15%

Compound: Cn1cccc1C(=O)N1CC[C@H](CO)[C@H](NC(=O)C2CC2)C1
- activity change, negative = inhibition [1]: -6.84%
- activity change, negative = inhibition [2]: -9.94%
- activity change, negative = inhibition [3]: -5.16%
- activity change, negative = inhibition [4]: -16.1%
- activity change, negative = inhibition [5]: -9.7%

Compound: CC1(C)CC(=O)N(CCCCN2CCN(c3ncccn3)CC2)C(=O)C1
- activity change, negative = inhibition [1]: 2.41%
- activity change, negative = inhibition [2]: 4.3%
- activity change, negative = inhibition [3]: 11.2%
- activity change, negative = inhibition [4]: -10.2%
- activity change, negative = inhibition [5]: 3.56%

Compound: Cc1ccc(NC(=O)CSc2nnc3n(CC(C)C)c(=O)c4ccc(Cl)cc4n23)c(Cl)c1
- activity change, negative = inhibition [1]: -6.47%
- activity change, negative = inhibition [2]: 0%
- activity change, negative = inhibition [3]: 4.5%
- activity change, negative = inhibition [4]: -9.73%
- activity change, negative = inhibition [5]: -2.12%

Compound: O=C(CCn1ccc2cc(S(=O)(=O)N3CCCCC3)ccc21)N1CCN(c2ccccc2)CC1
- activity change, negative = inhibition [1]: -1.13%
- activity change, negative = inhibition [2]: 3.35%
- activity change, negative = inhibition [3]: -4.69%
- activity change, negative = inhibition [4]: -1.98%
- activity change, negative = inhibition [5]: -0.443%

Compound: CC1(C(=O)NC2CCCCCC2)Cn2c(nc3ccccc32)C(=O)N1CCN1CCOCC1 (stereo not given)
- activity change, negative = inhibition [1]: 2.61%
- activity change, negative = inhibition [2]: 0.562%
- activity change, negative = inhibition [3]: 5.1%
- activity change, negative = inhibition [4]: 5.94%
- activity change, negative = inhibition [5]: 0.1%

Compound: Cc1ccccc1NC(=O)CSc1nnc2n(Cc3ccccc3)c(=O)c3ccccc3n12
- activity change, negative = inhibition [1]: -8.09%
- activity change, negative = inhibition [2]: -3.64%
- activity change, negative = inhibition [3]: 2.16%
- activity change, negative = inhibition [4]: -10.5%
- activity change, negative = inhibition [5]: -3.45%

Compound: CCOC(=O)c1ccc(NS(=O)(=O)c2ccc3[nH]c4c(c3c2)CCCC4)cc1
- activity change, negative = inhibition [1]: -1.7%
- activity change, negative = inhibition [2]: 4.88%
- activity change, negative = inhibition [3]: -0.985%
- activity change, negative = inhibition [4]: -6.36%
- activity change, negative = inhibition [5]: 0.384%

Compound: CC(C(=O)NCc1ccccc1F)n1ccc2cc(S(=O)(=O)N3CCCC3)ccc21 (stereo not given)
- activity change, negative = inhibition [1]: 0.778%
- activity change, negative = inhibition [2]: 3.43%
- activity change, negative = inhibition [3]: -1.13%
- activity change, negative = inhibition [4]: -8.88%
- activity change, negative = inhibition [5]: -3.52%

Compound: CC(C(=O)NCc1ccco1)n1ccc2cc(S(=O)(=O)N3CCCC3)ccc21 (stereo not given)
- activity change, negative = inhibition [1]: 4.21%
- activity change, negative = inhibition [2]: 1.35%
- activity change, negative = inhibition [3]: 3.8%
- activity change, negative = inhibition [4]: 5.4%
- activity change, negative = inhibition [5]: 1.99%

Compound: CC(C)C[C@@H]1NC(=O)[C@@H]2C[C@@]34C[C@@H]5[C@@]6(C)CCCC(C)(C)C6CC[C@@]5(C)N(c5ccccc53)[C@H]4N2C1=O (stereo not given in full)
- activity change, negative = inhibition [1]: 4.26%
- activity change, negative = inhibition [2]: 8.85%
- activity change, negative = inhibition [3]: 7.2%
- activity change, negative = inhibition [4]: -28.2%
- activity change, negative = inhibition [5]: -0.832%

Compound: COc1ccc(-c2cc3n(n2)CC(C)(C(=O)NCc2ccccc2OC)N(Cc2ccccc2C)C3=O)cc1 (stereo not given)
- activity change, negative = inhibition [1]: -0.017%
- activity change, negative = inhibition [2]: 3.6%
- activity change, negative = inhibition [3]: 0.335%
- activity change, negative = inhibition [4]: -1.22%
- activity change, negative = inhibition [5]: -2.08%

Compound: CCOCCCNC(=O)c1cc2n(n1)CC(C)(C(=O)NCc1ccccc1)N(C)C2=O (stereo not given)
- activity change, negative = inhibition [1]: 2.44%
- activity change, negative = inhibition [2]: -10.8%
- activity change, negative = inhibition [3]: 5.57%
- activity change, negative = inhibition [4]: -0.466%
- activity change, negative = inhibition [5]: -2.6%

Compound: Nc1nc(N)c2nc(-c3ccccc3)c(N)nc2n1
- activity change, negative = inhibition [1]: -12.2%
- activity change, negative = inhibition [2]: -1.5%
- activity change, negative = inhibition [3]: -4.97%
- activity change, negative = inhibition [4]: -10.5%
- activity change, negative = inhibition [5]: -1.2%

Compound: C[S+](=O)([O-])N1CCC(Cn2ccc3c(N4CCOCC4)nc(-c4cccc5[nH]ncc45)cc32)CC1
- activity change, negative = inhibition [1]: -63.2%
- activity change, negative = inhibition [2]: -45.4%
- activity change, negative = inhibition [3]: -27.1%
- activity change, negative = inhibition [4]: -21.9%
- activity change, negative = inhibition [5]: -74%

Compound: CC(C)c1noc(-c2cn(C3CCN(C(=O)COc4ccccc4)CC3)nn2)n1
- activity change, negative = inhibition [1]: -6.26%
- activity change, negative = inhibition [2]: -10.4%
- activity change, negative = inhibition [3]: -3.21%
- activity change, negative = inhibition [4]: -15%
- activity change, negative = inhibition [5]: -20.1%

Compound: O=c1c2c(CO)c(-c3ccccc3)nn2ccn1CCOc1ccccc1
- activity change, negative = inhibition [1]: -10.8%
- activity change, negative = inhibition [2]: -17.4%
- activity change, negative = inhibition [3]: -8.33%
- activity change, negative = inhibition [4]: -10.2%
- activity change, negative = inhibition [5]: -11.6%

Compound: COc1ccccc1N1CCN(C(=O)CCc2nnc3n(CCc4ccccc4)c(=O)c4ccccc4n23)CC1
- activity change, negative = inhibition [1]: -4.59%
- activity change, negative = inhibition [2]: 0%
- activity change, negative = inhibition [3]: -1.42%
- activity change, negative = inhibition [4]: -7.42%
- activity change, negative = inhibition [5]: -4.28%

Compound: O=C1c2cncnc2OCC(CNC(=O)C2(c3ccccc3)CC2)N1Cc1ccccc1 (stereo not given)
- activity change, negative = inhibition [1]: -8.16%
- activity change, negative = inhibition [2]: 1.17%
- activity change, negative = inhibition [3]: -5.1%
- activity change, negative = inhibition [4]: -20%
- activity change, negative = inhibition [5]: -4.12%

Compound: CC(C)=CCC[C@](C)(O[C@@H]1O[C@H](CO[C@@H]2OC[C@@H](O)[C@H](O)[C@H]2O)[C@@H](O)[C@H](O)[C@H]1O)[C@H]1CC[C@]2(C)[C@@H]1[C@H](O)C[C@@H]1[C@@]3(C)CC[C@H](O[C@@H]4O[C@H](CO)[C@@H](O)[C@H](O)[C@H]4O[C@@H]4O[C@H](CO)[C@@H](O)[C@H](O)[C@H]4O)C(C)(C)[C@@H]3CC[C@]12C
- activity change, negative = inhibition [1]: 0.168%
- activity change, negative = inhibition [2]: 17.5%
- activity change, negative = inhibition [3]: 13%
- activity change, negative = inhibition [4]: 7.62%
- activity change, negative = inhibition [5]: 8.95%

Compound: CC(C)(O)CCc1cccc(C(=O)NCCCc2ccccn2)c1
- activity change, negative = inhibition [1]: -3.13%
- activity change, negative = inhibition [2]: -0.996%
- activity change, negative = inhibition [3]: -0.201%
- activity change, negative = inhibition [4]: -5.9%
- activity change, negative = inhibition [5]: -1.76%
